The record followed here is patent US20160159919A1 (Chugai, published 2016).

For assay [1], the target named is T1, cynomolgus EREG (Biacore analyte) (cynomolgus monkey, UniProt O14944 63-108 (human entry), limits assumed).
T1 construct: also called cynomolgus monkey EREG; cEREG
The assay can be described thus: SPR (Biacore T100); KD for monkey EREG over KD for human EREG. On the procedure: The affinity and association rate constant of an anti-EREG antibody for an antigen were measured by the single-cycle kinetics method of surface plasmon resonance assay using Biacore™-T100 (GE Healthcare Japan). HBS-EP+ (GE Healthcare Japan) was used for the running buffer, and an amine coupling kit (GE Healthcare Japan) was used to covalently bond Protein A to the CM5 chip (carboxymethyl dextran-coated chip). Each anti-EREG antibody was prepared so that approximately 350 RU will be captured by Protein A. Human EREG or cynomolgus EREG used as the analyte was prepared at 0, 0.7, 1.4, 2.8, 5.6, and 11.2 nM using HBS-EP+. […] Then, the solution was switched to HBS-EP+, and the dissociation phase was measured for 15 minutes. […] To correct for the day-to-day differences in the measurement values, FIGS. 1 to 4 and Tables 16 and 19 show ratios based on taking the value of the control sample (cH-G1/cL-k) measured on the same day as 1.
A general note: Surface plasmon resonance follows binding to a sensor surface in real time, without labels.

Assay [2] concerns the target T2, Human EREG (Biacore analyte) (human, UniProt O14944 63-108).
T2 construct: also called hEREG; human epiregulin
Nature of the assay: SPR (Biacore T100), antibody captured on Protein A, EREG as analyte, single-cycle kinetics. The procedure:
(§1) The affinity and association rate constant of an anti-EREG antibody for an antigen were measured by the single-cycle kinetics method of surface plasmon resonance assay using Biacore™-T100 (GE Healthcare Japan). HBS-EP+ (GE Healthcare Japan) was used for the running buffer, and an amine coupling kit (GE Healthcare Japan) was used to covalently bond Protein A to the CM5 chip (carboxymethyl dextran-coated chip). Each anti-EREG antibody was prepared so that approximately 350 RU will be captured by Protein A. Human EREG or cynomolgus EREG used as the analyte was prepared at 0, 0.7, 1.4, 2.8, 5.6, and 11.2 nM using HBS-EP+. Measurement was carried out by first allowing Protein A to capture the antibody solution, and then at a flow rate of 30 μL/min, successively injecting each of the 0, 0.7, 1.4, 2.8, 5.6, and 11.2 nM human EREG or cynomolgus EREG solutions for three minutes to allow reaction to take place. Then, the solution was switched to HBS-EP+, and the dissociation phase was measured for 15 minutes. After completion of the dissociation phase measurement, the sensor chip was washed with 25 mM NaOH and regenerated. The measurement at zero concentration was similarly carried out by allowing Protein A to capture the antibody solution, and performing three-minute HBS-EP+ injections successively for five times to allow reaction to take place, and then switching to HBS-EP+ to measure the dissociation phase for 15 minutes. After completion of the dissociation phase measurement, the sensor chip was washed with 25 mM NaOH and regenerated. A data analysis software exclusively for Biacore, Biacore T100 Evaluation Software Version 2.0.1, was used to perform kinetic analyses to calculate the association rate constant (kₐ), dissociation rate constant (kd), and the rate constant ratio from the obtained sensorgrams. To correct for the day-to-day differences in the measurement values, FIGS. 1 to 4 and Tables 16 and 19 show ratios based on taking the value of the control sample (cH-G1/cL-k) measured on the same day as 1.

Assay [3] deals with T1, cynomolgus EREG (Biacore analyte). Described as above. On the procedure: as §1
T1 sequence (O14944 other isoform, or with tags, fused parts or gaps limits assumed): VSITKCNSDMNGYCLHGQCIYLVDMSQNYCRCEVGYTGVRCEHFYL

B1: H205-G1d/L53-k (antibody, human IgG1, kappa)
heavy: QDQLVQSGAEVKKPGASVKVSCKASGFNIKDTYIQWVRQAPGQGLEWMGRIDPLRRQTKYREKFEGRVTITADTSTNTAYMELSSLRSEDTAVYYCVRSGREFDYWGQGTLVTVSS[human IgG1 constant region cut from this listing]
light: DIQMTQSPSSLSASVGDRVTITCRASQDIHKYIAWYQQKPGQAPRLLIQYTSTLQPGVPSRFSGSGSGTDYTFTISSLQPEDIATYYCLQYDNLRTFGGGTKVEIKRTVAAPSVFIFPPSDEQLKSGTASVVCLLNNFYPREAKVQWKVDNALQSGNSQESVTEQDSKDSTYSLSSTLTLSKADYEKHKVYACEVTHQGLSSPVTKSFNRGEC
With B1, the “cEREG (nM)/hEREG (nM)” value in assay [1] turned out to be 5.5 ratio. In assay [2], the Kd (as a rule, the constant that tells how readily two partners part at equilibrium) was 0.22 nM; the koff (commonly a measure of how fast the partners let go of each other) amounted to 0.00012 s⁻¹; the kon (in general, the second-order rate constant of association) came out at 540000 M⁻¹ s⁻¹. In assay [3], this molecule gave a Kd of 1.2 nM, a koff of 0.0007 s⁻¹ and a kon of 580000 M⁻¹ s⁻¹.

B2: H231-G1d/L53-k (antibody, human IgG1, kappa)
heavy: QDQLVQSGAEVKNPGASVKVSCKASGFNIKDTYIQWVRQAPGQGLEWMGRIDPLRRQTKYREKFEGRVTITADTSTNTAYMELSSLRSEDTAVYYCVRSGREFDYWGQGTLVTVSS[human IgG1 constant region cut from this listing]
light: DIQMTQSPSSLSASVGDRVTITCRASQDIHKYIAWYQQKPGQAPRLLIQYTSTLQPGVPSRFSGSGSGTDYTFTISSLQPEDIATYYCLQYDNLRTFGGGTKVEIKRTVAAPSVFIFPPSDEQLKSGTASVVCLLNNFYPREAKVQWKVDNALQSGNSQESVTEQDSKDSTYSLSSTLTLSKADYEKHKVYACEVTHQGLSSPVTKSFNRGEC
As for B2, the “cEREG (nM)/hEREG (nM)” value in assay [1] was 6 ratio. Besides, in assay [2], binding was put at a Kd of 0.23 nM, the koff was found to be 0.00011 s⁻¹ and the kon worked out at 450000 M⁻¹ s⁻¹. In assay [3], this molecule yielded a Kd of 1.4 nM, a koff of 0.00086 s⁻¹ and a kon of 620000 M⁻¹ s⁻¹.
